Inconclusive results, whose numbers are uncertain, are shown with a selection of clear calls. For some assays here: Potencies of inconclusive entries are doubtful fits and often do not repeat. The source made the active and inactive calls. Unless noted, calls follow the shape of the dose curve; as a rule, active = well fitted curve in the direction sought with a large enough effect in the repeat runs; inconclusive = weak or mixed curves; inactive = no such curve, though single readings can be large; an effect the other way counts as inactive or inconclusive.
Tests used:
[1] = biological target: Peroxisome proliferator-activated receptor gamma (Homo sapiens) (UniProt P37231); test: qHTS assay to identify small molecule antagonists of the peroxisome proliferator-activated receptor gamma (PPARg) signaling pathway (AID 743191; calls by dose curve; also: nearly all actives have a fitted effect of over 30% in size; also: potency is read from the fitted curve at half-maximal effect); details: HEK293H PPARg-UAS-bla, beta-lactamase ratio, antagonist, 17 h; ratio activity, negative = inhibition: at 62.6 µM (top of the series) unless noted
Chain of UniProt P37231 (P37231 whole entry, looked up): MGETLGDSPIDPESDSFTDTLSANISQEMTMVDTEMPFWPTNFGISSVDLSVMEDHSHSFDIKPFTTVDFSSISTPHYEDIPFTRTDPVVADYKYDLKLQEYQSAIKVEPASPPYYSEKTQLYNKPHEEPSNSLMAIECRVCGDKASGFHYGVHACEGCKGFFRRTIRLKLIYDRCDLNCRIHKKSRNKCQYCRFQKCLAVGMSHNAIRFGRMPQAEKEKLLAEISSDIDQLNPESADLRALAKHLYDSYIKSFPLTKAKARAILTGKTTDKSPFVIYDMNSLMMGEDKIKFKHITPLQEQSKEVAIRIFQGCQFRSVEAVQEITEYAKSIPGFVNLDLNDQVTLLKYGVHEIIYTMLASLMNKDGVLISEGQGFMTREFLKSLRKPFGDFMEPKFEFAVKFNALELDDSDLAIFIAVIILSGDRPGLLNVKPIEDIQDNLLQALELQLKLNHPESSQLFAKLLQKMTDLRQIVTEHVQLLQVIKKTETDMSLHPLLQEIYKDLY
Outline: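 Beta-lactamase reporter under UAS control in HEK293H PPARg-bla cells; compound treatment 17 h at 37C. Read-out: fluorescence intensity after 1 h room-temperature incubation with LiveBLAzer B/G FRET substrate.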

[2] = qHTS assay to identify small molecule antagonists of the peroxisome proliferator-activated receptor delta (PPARd) signaling pathway - cell viability counter screen (AID 743213); details: PPARd-bla HEK293H viability, CellTiter-Glo luminescence, 17 h; viability change, negative = cytotoxic: at 62 µM (top of the series) unless noted; also: nearly all actives have a fitted effect of over 50% in size; also: potency is read from the fitted curve at half-maximal effect
Outline: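 Cytotoxicity counter screen: CellTiter-Glo luminescence read 30 min after addition, in the same wells as the reporter assay. There, PPARd UAS-bla HEK293H cells (3000/well) were treated 17 h at 37 C with compound and 300 nM L165041.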

[3] = qHTS assay to identify small molecule antagonists of the peroxisome proliferator-activated receptor gamma (PPARg) signaling pathway - cell viability counter screen (AID 743194); details: PPARg-bla HEK293H viability, CellTiter-Glo luminescence, 17 h, co-treated with 50 nM rosiglitazone; activity change, negative = cytotoxicity: at 62.6 µM (top of the series); also: potency is read from the fitted curve at half-maximal effect; nearly all actives have a fitted effect of over 55% in size
Outline: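 Viability was measured as CellTiter-Glo luminescence in GeneBLAzer PPARg UAS-bla HEK293H cells. These cells had been exposed 17 h at 37 C to compounds together with rosiglitazone at 50 nM final, with the beta-lactamase readout taken in the same wells.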

[4] = biological target: Bile acid receptor (Homo sapiens) (UniProt Q96RI1); test: qHTS assay to identify small molecule antagonists of the farnesoid-X-receptor (FXR) signaling pathway (AID 743217; active = well fitted inhibition curve with a large enough effect in the signal ratio in the repeat runs, not every such curve was filed as active; inconclusive = weak or mixed curves, or effect the other way; inactive = no such curve, though single readings can be large or run the other way; the % refers to the signal ratio; also: % is scaled to controls: 0 for no effect and ±100 for the full control effect); details: HEK293T FXR-UAS-bla, beta-lactamase ratio, CDCA-stimulated, 16 h; activity change, negative = inhibition: at 62.6 µM (top of the series) unless noted
Chain of UniProt Q96RI1 (Q96RI1 whole entry, looked up): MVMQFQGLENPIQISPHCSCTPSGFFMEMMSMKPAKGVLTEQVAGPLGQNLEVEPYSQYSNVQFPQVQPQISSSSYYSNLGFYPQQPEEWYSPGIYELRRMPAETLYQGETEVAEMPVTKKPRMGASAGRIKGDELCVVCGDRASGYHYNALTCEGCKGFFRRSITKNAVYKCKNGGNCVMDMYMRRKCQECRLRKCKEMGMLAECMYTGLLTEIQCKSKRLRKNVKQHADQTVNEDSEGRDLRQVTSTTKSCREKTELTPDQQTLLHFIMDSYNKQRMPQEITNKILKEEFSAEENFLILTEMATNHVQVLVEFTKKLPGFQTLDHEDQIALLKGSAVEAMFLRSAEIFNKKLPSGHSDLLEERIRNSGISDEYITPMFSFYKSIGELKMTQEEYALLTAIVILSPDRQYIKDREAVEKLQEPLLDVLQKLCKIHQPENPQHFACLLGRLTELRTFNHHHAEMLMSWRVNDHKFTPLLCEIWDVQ
Outline: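 Cells carrying a UAS-driven beta-lactamase reporter (GeneBLAzer FXR-UAS-bla HEK 293T) were plated and rested 5 h at 37 °C. Compounds in DMSO were added alongside chenodeoxycholic acid agonist at 50 uM final and left 16 h at 37 °C before FRET substrate readout.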

[5] = qHTS assay to identify small molecule agonists of the farnesoid-X-receptor (FXR) signaling pathway - cell viability counter screen (AID 743218); details: FXR-bla HEK293T viability, CellTiter-Glo luminescence, 16 h; viability change, negative = cytotoxic: at 62.6 µM (top of the series) unless noted; also: nearly all actives have a fitted effect of over 45% in size; also: potency is read from the fitted curve at half-maximal effect
Outline: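 Cells were seeded, left 5 h at 37 C and 5% CO2, then dosed with compound in DMSO for 16 h. After the beta-lactamase FRET read, CellTiter-Glo was added and luminescence measured 30 min later.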

[6] = biological target: Peroxisome proliferator-activated receptor delta (Homo sapiens) (UniProt Q03181); test: qHTS assay to identify small molecule antagonists of the peroxisome proliferator-activated receptor delta (PPARd) signaling pathway (AID 743215; active = well fitted inhibition curve with a large enough effect in the signal ratio in the repeat runs, not every such curve was filed as active; inconclusive = weak or mixed curves, or effect the other way; inactive = no such curve, though single readings can be large or run the other way; the % refers to the signal ratio;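 also: cells stimulated with agonist L165041 at 300 nM final during compound exposure; % is scaled to controls: 0 for no effect and ±100 for the full control effect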); details: HEK293H PPARd-UAS-bla, beta-lactamase FRET ratio, antagonist, 17 h; ratio activity, negative = inhibition: at 62 µM (top of the series) unless noted
Chain of UniProt Q03181 (Q03181 whole entry, looked up): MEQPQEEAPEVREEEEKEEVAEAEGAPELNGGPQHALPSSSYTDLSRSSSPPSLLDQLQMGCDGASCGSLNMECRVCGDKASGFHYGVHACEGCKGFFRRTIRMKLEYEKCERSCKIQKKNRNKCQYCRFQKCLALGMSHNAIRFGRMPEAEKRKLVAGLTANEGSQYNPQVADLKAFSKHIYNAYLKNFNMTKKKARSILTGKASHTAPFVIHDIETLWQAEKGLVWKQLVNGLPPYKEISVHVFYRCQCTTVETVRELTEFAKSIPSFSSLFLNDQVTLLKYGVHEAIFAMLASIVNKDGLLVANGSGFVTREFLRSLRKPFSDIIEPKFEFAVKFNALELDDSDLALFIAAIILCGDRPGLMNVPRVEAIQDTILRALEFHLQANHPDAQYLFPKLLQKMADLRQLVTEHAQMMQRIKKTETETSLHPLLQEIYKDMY
Outline: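 Cells: HEK293H with a UAS-driven beta-lactamase reporter responsive to PPARd. Compounds were co-added with L165041 (300 nM, final) and incubated 17 h at 37 C before a 2 h room-temperature FRET substrate step and fluorescence reading.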

[7] = biological target: Vitamin D3 receptor (Homo sapiens) (UniProt P11473); test: qHTS assay to identify small molecule antagonists of the vitamin D receptor (VDR) signaling pathway (AID 743223; active = well fitted inhibition curve with a large enough effect in the signal ratio in the repeat runs, not every such curve was filed as active; inconclusive = weak or mixed curves, or effect the other way; inactive = no such curve, though single readings can be large or run the other way; the % refers to the signal ratio; also: % is scaled to controls: 0 for no effect and ±100 for the full control effect); details: VDR-UAS-bla HEK293T, beta-lactamase FRET ratio, 16 h; activity change, negative = inhibition: at 61 µM (top of the series) unless noted
Chain of UniProt P11473 (P11473 whole entry, looked up): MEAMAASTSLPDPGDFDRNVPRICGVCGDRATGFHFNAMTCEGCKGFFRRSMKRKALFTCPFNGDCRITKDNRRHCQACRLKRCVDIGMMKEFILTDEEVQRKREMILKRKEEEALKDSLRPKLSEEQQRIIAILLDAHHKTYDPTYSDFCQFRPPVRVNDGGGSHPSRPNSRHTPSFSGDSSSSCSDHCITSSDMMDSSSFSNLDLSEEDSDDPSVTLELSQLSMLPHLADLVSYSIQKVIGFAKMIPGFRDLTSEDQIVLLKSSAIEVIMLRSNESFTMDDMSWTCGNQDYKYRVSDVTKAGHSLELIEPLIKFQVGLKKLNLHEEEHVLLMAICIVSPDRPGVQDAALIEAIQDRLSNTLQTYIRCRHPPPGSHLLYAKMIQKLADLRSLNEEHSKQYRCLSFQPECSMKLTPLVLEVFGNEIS
Outline: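 Beta-lactamase reporter read-out: FRET substrate fluorescence after 2 h at room temperature, following 16 h exposure of VDR-bla cells to test compound plus 3 nM (final) 1alpha,25-dihydroxyvitamin D3 agonist at 37C.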

[8] = qHTS assay for small molecule agonists of the antioxidant response element (ARE) signaling pathway (AID 743202; active = well fitted activation curve with a large enough effect in the signal ratio in the repeat runs, not every such curve was filed as active; inconclusive = weak or mixed curves, or effect the other way; inactive = no such curve, though single readings can be large or run the other way; the % refers to the signal ratio; also: potency is read from the fitted curve at half-maximal effect); details: HepG2 ARE-bla reporter, beta-lactamase FRET, 16 h
Outline: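 Beta-lactamase reporter activity, read as fluorescence intensity, reflects ARE/Nrf2 pathway induction in HepG2 cells after 16 h compound exposure at 37 C; substrate loading was 2 h at room temperature.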

[9] = qHTS assay for small molecule activators of the heat shock response signaling pathway (AID 743210; active = well fitted activation curve with a large enough effect in the signal ratio in the repeat runs, with a control signal flat, not every such curve was filed as active; inconclusive = weak or mixed curves; the % refers to the signal ratio; also: potency is read from the fitted curve at half-maximal effect); details: HeLa HSE-bla reporter, beta-lactamase ratio, 5 h; activation: at 62.6 µM (top of the series)
Outline: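 Fluorescence from a cleaved B/G FRET substrate (2.5 h, room temp) reports HSE-driven beta-lactamase in HeLa cells treated 5 h at 37 C with DMSO-dissolved compounds.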

[10] = qHTS assay to identify small molecule agonists of the peroxisome proliferator-activated receptor delta (PPARd) signaling pathway - cell viability counter screen (AID 743211); details: PPARd-bla HEK293H viability, CellTiter-Glo luminescence, 17 h; activity change, negative = cytotoxicity: at 62.6 µM (top of the series); also: nearly all actives have a fitted effect of over 55% in size; also: potency is read from the fitted curve at half-maximal effect
Outline: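 Read-out: CellTiter-Glo luminescence, 30 min RT, measured in the same wells as the beta-lactamase reporter. Cells: GeneBLAzer PPAR delta UAS-bla HEK293H, 3000 cells/well, compound exposure 17 h at 37C.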

[11] = biological target: Peroxisome proliferator-activated receptor delta (Homo sapiens) (UniProt Q03181); test: qHTS assay to identify small molecule agonists of the peroxisome proliferator-activated receptor delta (PPARd) signaling pathway (AID 743212; calls by dose curve; also: % is scaled to controls: 0 for no effect and ±100 for the full control effect); details: HEK293H PPARd-UAS-bla, beta-lactamase FRET ratio, 17 h; activation: at 62.6 µM (top of the series) unless noted
Outline: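 Steps: seed PPARd-bla HEK293H cells; incubate 5 h, 37 C, 5% CO2; add compounds in DMSO; incubate, 37 C; add LiveBLAzer B/G FRET substrate; hold 2 h at room temperature; measure fluorescence.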

[12] = qHTS assay for small molecule agonists of the antioxidant response element (ARE) signaling pathway - cell viability counter screen (AID 743203; calls by dose curve; also: % is scaled to controls: 0 for no effect and ±100 for the full control effect; nearly all actives have a fitted effect of over 55% in size); details: ARE-bla HepG2 viability, CellTiter-Glo luminescence, 16 h; viability change, negative = cytotoxic: at 73.3 µM (top of the series)
Outline: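 Cytotoxicity was tested in parallel with the ARE reporter screen. ARE-bla HepG2 cells were exposed to compounds for 16 hrs, and viability was taken from CellTiter-Glo luminescence.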

[13] = biological target: Vitamin D3 receptor (Homo sapiens) (UniProt P11473); test: qHTS assay to identify small molecule agonists of the vitamin D receptor (VDR) signaling pathway (AID 743222; calls by dose curve; also: % is scaled to controls: 0 for no effect and ±100 for the full control effect); details: HEK293T VDR-UAS-bla, beta-lactamase FRET ratio, 16 h; activation: at 63.5 µM (top of the series) unless noted
Outline: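 Cells carrying a VDR-driven beta-lactamase reporter are seeded at 2,000 per well and rested 4 h. Compounds in DMSO are added for 16 h at 37C, and FRET substrate fluorescence is measured after 2 h at room temperature.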

[14] = qHTS assay for small molecule activators of the heat shock response signaling pathway - cell viability counter screen (AID 743209); details: HSE-bla HeLa viability, CellTiter-Glo luminescence, 5 h; activity change, negative = cytotoxicity: at 62.6 µM (top of the series); also: potency is read from the fitted curve at half-maximal effect; nearly all actives have a fitted effect of over 50% in size
Outline: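 Cytotoxicity counter screen run in parallel with the HSE beta-lactamase reporter, using the same wells. HeLa HSE-bla cells received compound for 5 h at 37 C; ATP-based CellTiter-Glo luminescence was measured after 30 min at room temperature.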

[15] = activation: at 73.3 µM (top of the series) unless noted
Tags tell the direction and shape of the fitted curve or compound fluorescence and quenching.

## CCCCCOC(=O)CCCCC
[1]
  ratio activity, negative = inhibition: inconclusive: 31.4%
[2]
  Potency: inactive

## CCCN[C@H]1CCc2nc(N)sc2C1
[3]
  Potency: inconclusive: 0.372 µM [rising, full curve, poor fit]

## CCCCCCCCCOC(=O)c1ccccc1C(=O)OCCCCCCCCC
[1]
  ratio activity, negative = inhibition: inconclusive: 5.17%
[2]
  Potency: inactive
[4]
  Potency: inactive

## Cc1c(NC(C)C)c(=O)n(-c2ccccc2)n1C
[1]
  Potency: inactive
[5]
  Potency: inconclusive: 0.422 µM [rising, partial curve, poor fit]

## COc1ccc(Br)c(C)c1
[1]
  ratio activity, negative = inhibition: inconclusive: -3.13% [at 81.1 µM]
[6]
  Potency: inactive

## O=C(O)CNC(=O)c1ccc(CO)o1
[1]
  ratio activity, negative = inhibition: inconclusive: 0.889%
[2]
  Potency: inconclusive: 0.137 µM [cytotoxic, full curve, poor fit]

## COc1ccccc1OCC(O)CN1CCN(CC(=O)Nc2c(C)cccc2C)CC1 (centres undefined)
[1]
  Potency: inconclusive: 33.5 µM [activator, single point]
[6]
  ratio activity, negative = inhibition: inconclusive: -0.584%
[7]
  activity change, negative = inhibition: inconclusive: 0.714%

## C/C(CC(C)C)=N\O
[3]
  Potency: inconclusive: 0.347 µM [cytotoxic, full curve, poor fit]
[7]
  Potency: inactive

## O=C1CCCCCCCCCCCN1
[8]; [15]
  activation: inconclusive: -12.8%
[8]; at 73.3 µM (top of the series)
  activation: inactive: -1.24%
[7]
  Potency: inactive

## Clc1nc(Cl)c(Cl)c(Cl)c1Cl
[8]; [15]
  Potency: active: 7.74 µM
  activation: inconclusive: 25.2%
[7]
  activity change, negative = inhibition: inconclusive: 2.67% [at 78.8 µM]

## C[C@@H]1C[C@H]2[C@@H]3CCC4=CC(=O)C=C[C@]4(C)[C@@]3(Cl)[C@@H](O)C[C@]2(C)[C@@]1(OC(=O)c1ccco1)C(=O)CCl
[3]
  Potency: inconclusive: 9.44 µM [cytotoxic, partial curve]
[8]; [15]
  Potency: active: 13.3 µM
[9]
  Potency: active: 31.6 µM
[10]
  Potency: inconclusive: 23.7 µM [cytotoxic, partial curve, poor fit]
[11]
  activation: inconclusive: 6.06%
[2]
  Potency: inconclusive: 33.5 µM [cytotoxic, single point]
[5]
  Potency: inconclusive: 7.5 µM [cytotoxic, full curve]

## CC(C)(O)c1ccccc1CC[C@@H](SCC1(CC(=O)O)CC1)c1cccc(/C=C/c2ccc3ccc(Cl)cc3n2)c1
[3]
  Potency: inconclusive: 13.3 µM [cytotoxic, partial curve, poor fit]
[8]; [15]
  activation: inconclusive: -2.87%
[7]
  activity change, negative = inhibition: inconclusive: -7.55%

## CC(=O)/C=C/C1=C(C)CCCC1(C)C
[8]; [15]
  Potency: inactive

## C/C=C(\C)C(=O)OCC/C=C\CC
[8]; [15]
  Potency: inactive
[12]
  Potency: inactive
[10]
  Potency: inactive
[6]
  Potency: inactive
[13]
  Potency: inactive

## C[C@]12CCC(=O)C=C1CC[C@@H]1[C@@H]2C(=O)C[C@@]2(C)[C@H]1CC[C@]2(O)C(=O)CO
[8]; [15]
  Potency: inconclusive: 61.1 µM [rising, single point]
[14]
  Potency: inconclusive: 43.6 µM [cytotoxic, partial curve, poor fit]
[11]
  activation: inconclusive: 1.16%
[5]
  Potency: inactive

## OC1(c2ccccc2)CCNCC1
[8]; [15]
  Potency: inactive
